According to the supplement of paper PMC10126150:
Values marked as one replicate rest on one cluster of the flow cell; about a third of the high ones do not repeat.

Tested on: ATP
Experiment: switch fluorescence ratio, 500 uM ATP over buffer (Cy3 cluster intensity, sum of 5 cycles each) (fold (ratio)); higher = stronger signal-on switching upon ATP binding; sequences stand for … in TCGTCGGCAGCGTCAGATGTGTATAAGAGACAGTTTTTTTTTTTTTTTTTTTTTTTTT…TC
Details: aptamer strand: ATP DNA aptamer (quencher-CACCTGGGGGAGTATTGCGGAGGAAGG + anchor), 100 nM annealed; ATP concentration: 500 uM; one replicate
In short: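 Cy3-labelled switching-strand clusters on a modified Illumina MiSeq flow-cell were annealed to 100 nM quencher-labelled ATP aptamer and imaged first in selection buffer, then after 15 min with 500 uM ATP at 22 °C. NaOH stripping and re-annealing separated each of five buffer/ATP cycles, and clusters outside 100-1000 RFU were excluded. The fluorescence ratio sums target-cycle Cy3 intensity over buffer-cycle Cy3 intensity per cluster and averages it per switch-domain sequence.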
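Also: ATP exposure 15 min at 22 °C before imaging.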

Sequence	switch fluorescence ratio
CTCTTTTGTA	0.979
GAGTAGAGCG	0.982
TAATGTATCG	1.05
GCCTTTAACG	1.08
TTCGGCTCCA	0.979
TTAGAATTGA	1.02
AACTGGGCGA	1.01
TTTACGCTTT	1.04
AGAGCCGGAG	0.957
CGGACTTAGG	1.03
CAAAATATTG	0.972
TTGATTAACT	1
AAACAGCGAC	1.1
GGCTTATAGT	1.01
ATGAGCCTGT	0.968
TCCCTCAAAA	1.51
ACATGGAAAT	1.02
GGGCGGTAGA	1.06
TAGAAAACGT	1.04
TCGGGGTGGA	1.01
TCTAGTCCAT	0.965
AGGTGTTCAT	0.978
ATCGAATAT	1

Sequence	switch fluorescence ratio
CCACACAACT	1.15
CCAATCCACG	1.06
TTTCCTGCCT	1.16
TTGGCCTCCG	1.18
GAGACACCAC	1.19
TGGGTAACCT	1.22
GATCGAAAAT	1.03
CTATTGCATA	1.08
TGAGTCCGCT	3.84
TTGTTCAGGT	0.983
AGTCATTATT	1.05
CGTGACAACG	1.03
ACTTATCCGG	1.01
TAGCACTACA	1.17
AATCGTACAC	1.08
GCCGGGCAAT	1.07
AACTCCGCTT	4.95
CCGTTAAATG	1.04
AATTCGGGAC	1
GGGATAATCT	1.01
TATGGATTCA	0.961
CCAAGGTAGC	1.1
TATTCGGAGT	1.01

Sequence	switch fluorescence ratio
TGAAGGACAG	1.07
CAGGCGTGAC	1.06
AACGCACGCA	1.67
AGGCCGCCGC	1
CGGATTTTCT	0.983
GACATAGCTG	1.11
CGGATAGGTG	1.1
GGCTGCCAAT	1.05
TGGTTCTGAA	1.04
GTCGGATGCA	1.01
TTTTTCGCCC	1.59
TTAAAAGCGC	0.995
GCAGGATGG	1.01
GCTACAATCA	1.06
AATAGATTGG	1.02
GGGGCTCTTT	1.02
ATCGGATGT	0.969
GTACGCTTTT	1.1
CAGTATTCAA	0.978
GCATACTTGC	0.998
TTTTTGGTC	0.964
CTATCTAAA	0.901
ACTTAAAAAA	0.997

Sequence	switch fluorescence ratio
ATGAGAGTCT	1
GCCGGTTTAT	0.967
GGTCTTAAAC	0.989
ATTGAAAGTC	0.994
CGGGGCTCAT	1.02
ATTGTAGTT	0.972
TTCTGGATGG	0.958
TCGAAGTCGT	1.01
TATTCTGACA	1.04
GGTGCAGAGA	1
TAATCGTTGG	1.09
GTCATGTACC	1.13
CACCGCTCAT	2.25
AGCTGGCTAT	1.02
TCGGCAGTG	1.08
GAGGTATATT	1.02
GGTGGTGCGT	0.996
CGGGGTCAAA	1.02
TGCGTGGAGT	1
AACACTTCGA	1.02
TCAAAGGTCG	1.02
AGTCAAGTAA	1.01
TAGTCGAATC	0.995

Sequence	switch fluorescence ratio
CACACTTTTT	0.961
TATTGTTAAT	0.974
GGCCCTAGAT	0.969
AGTCAGAGCG	1.03
TATTTGTATA	1.02
ATTCGTTACG	0.969
TTCGTTGGAA	1.61
AGGGAATTCG	1.01
AGATTGGTAG	0.971
GGGAACCGAT	0.964
ACCTAGTTTC	1.02
CTTGCCGTGT	1.1
TTAATGCTAC	1.15
TCAAATTTT	1.04
AAAGTGAGCG	0.963
TCAGCTTCAC	2.04
GACCAGTTAT	1.01
TGCTTTCGTT	0.983
TGACATGCCG	0.996
GTAACGTCGG	1
CACGTTTCTA	0.959
CTTACACAGT	1.01
CAAAAATTAC	1.9

Sequence	switch fluorescence ratio
TTCTCGGCTG	1.03
CCCAGCGACA	1.5
CCCTGTTC	1.01
TGAAACGGGC	1.08
CCTATGAGAT	1.03
CCTTACCTGA	1.08
TTTGCCCAGG	3.93
GCCGAGGTCG	1.06
TAAATTGGAA	0.976
GAGTAACCCG	1.04
TTTTGTACCG	1.01
GACATCGCCC	1.07
GCACGCGGTT	1.01
CGACGACTTT	1.15
AGACTTACAT	1.2
CGGTGCTGAC	1.11
TTATCCCGTT	1.05
CCTAACGGAG	1.21
AATTCATCTT	0.99
TGTTCGCATA	1.44
ACTACCCAG	1.11
CTCTAAAACA	1.03
AGTTGCGGCC	0.997

Sequence	switch fluorescence ratio
CTGCCGCCAG	1.38
TGAGAACGCT	1.06
GCAAGTCGAC	1.01
TGGGTTCCGG	0.937
TGCATTATT	1.27
GCTTGTT	1.01
CAATATATGA	1.02
GTAACCGGCA	1.06
TAATCCAATC	1
CCCATCGGGA	1.01
ACTGTTACAT	1.25
CTATTCGTTT	1.01
ATAGTCAGGC	1.06
CAGGGAAATA	0.99
TCTCTTTTTC	1.78
CGCGGCTGAA	1.02
TCAAAAAAGC	0.967
ACGTGGGCAG	0.975
CATTGTGTAA	1.06
